According to the supplement of paper PMC9174493:
This is one part of the list. Single values of this set are uncertain. Values with irradiation are relative to irradiated vehicle.

What was measured:
A549-Dual [1] = experiment: NF-kB reporter (SEAP) activity, viability-corrected, relative to vehicle (fold change vs vehicle); higher = more activation of STING-IRF / NF-kB immune response reporter; settings: 10 µM
A549-Dual [2] = experiment: ISRE reporter (Lucia luciferase) activity, viability-corrected, relative to vehicle (fold change vs vehicle); higher = more activation of STING-IRF / NF-kB immune response reporter; settings: 10 µM
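Throughout, for NF-kB reporter (SEAP) activity, viability-corrected, relative to vehicle: viability correction based on the alamar blue assay, with concentrations leaving 10% survival or less dropped.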

| SMILES | NF-kB reporter (A549-Dual [1]; irradiation: 8 Gy/4 fr) | NF-kB reporter (A549-Dual [1]; irradiation: none) | ISRE reporter (A549-Dual [2]; irradiation: 8 Gy/4 fr) | ISRE reporter (A549-Dual [2]; irradiation: none) |
| --- | --- | --- | --- | --- |
| CC(=O)Oc1cc(C(F)(F)F)ccc1C(=O)O [Triflusal] | 1.1 | 0.779 | 1.05 | 0.722 |
| CN1C(=O)CC(c2ccccc2)C1=O (stereo not given) [Phensuximide] | 0.929 | 0.899 | 0.916 | 0.856 |
| CC(C)OC(=O)C(C(=O)OC(C)C)=C1SC=CS1 [Malotilate] | 0.8 | 0.866 | 0.789 | 0.831 |
| Cc1cc(=O)oc2cc(O)cc(O)c12 [5,7-Dihydroxy-4-methylcoumarin] | 0.791 | 0.751 | 0.573 | 0.382 |
| CCCc1cc(C(N)=S)ccn1 [Protionamide] | 0.708 | 0.991 | 0.689 | 0.712 |
| CCN(CC)CCOC(=O)c1ccc(N)cc1Cl.Cl [Chloroprocaine HCl] | 0.641 | 0.724 | 0.606 | 0.601 |
| CCCC(=O)Nc1ccc(OCC(O)CNC(C)C)c(C(C)=O)c1.Cl (stereo not given) [Acebutolol HCl] | 0.871 | 1.04 | 0.757 | 0.951 |
| NCCCS(=O)(=O)O [Homotaurine] | 0.746 | 1.25 | 0.657 | 0.702 |
| CC(O)C(O)C1CNc2nc(N)[nH]c(=O)c2N1.Cl.Cl (stereo not given) [Sapropterin Dihydrochloride] | 0.751 | 0.864 | 0.876 | 0.746 |
| CCCOc1ccc(C(=O)OCCN(CC)CC)cc1N.Cl [Proparacaine HCl] | 0.667 | 0.788 | 0.772 | 0.848 |
| CCCc1nn(C)c2c(=O)[nH]c(-c3cc(S(=O)(=O)N4CCN(C)CC4)ccc3OCC)nc12 [Sildenafil] | 1.02 | 1.52 | 0.915 | 0.968 |
| Cn1c([N+](=O)[O-])cnc1COC(N)=O [Ronidazole] | 0.911 | 0.998 | 0.794 | 0.78 |
| Cc1cc(O)c(C(=O)NC(C(=O)NC2C(=O)N3C(C(=O)[O-])=C(CSc4nnnn4C)CSC23)c2ccc(O)cc2)cn1.[Na+] (stereo not given) [Cefpiramide sodium] | 0.635 | 0.969 | 0.678 | 0.823 |
| CO/N=C(\C(=O)N[C@@H]1C(=O)N2C(C(=O)O)=C(Cn3ccc(=N)n3CCO)CS[C@H]12)c1csc(N)n1.O=S(=O)(O)O [Cefoselis Sulfate] | 0.821 | 0.923 | 0.797 | 0.822 |
| COc1ccc2[nH]cc(CCNC(C)=O)c2c1 [Melatonin] | 0.874 | 1.01 | 0.848 | 0.728 |
| CCCCC(CC)COC(=O)CC(C(=O)OCC(CC)CCCC)S(=O)(=O)[O-].[Na+] (stereo not given) [Docusate Sodium] | 0.861 | 0.965 | 0.874 | 0.87 |
| O.O=C([O-])C(O)C(O)C(O)C(O)CO.O=C([O-])C(O)C(O)C(O)C(O)CO.[Ca+2] (stereo not given) [Calcium gluconate] | 1.12 | 0.708 | 1.08 | 0.654 |
| COc1cccc(N2CCN(C3=Nc4c(F)cccc4C(CC(=O)O)N3c3cc(C(F)(F)F)ccc3OC)CC2)c1 (stereo not given) [Letermovir(AIC246)] | 0.667 | 1 | 0.721 | 1.09 |
| C=CCNC(N)=S [Allylthiourea] | 0.848 | 0.865 | 0.776 | 0.822 |
| CN1CCCN=C1/C=C/c1cccs1.O=C(O)c1cc2ccccc2c(Cc2c(O)c(C(=O)O)cc3ccccc23)c1O [Pyrantel Pamoate] | 0.943 | 1.38 | 0.401 | 0.526 |
| COc1cc(O)c(C(=O)c2ccccc2)cc1S(=O)(=O)O [Sulisobenzone] | 1.02 | 0.693 | 0.869 | 0.438 |
| CCC1OC(=O)CC(O)C(C)C(OC2OC(C)C(O)C(N(C)C)C2O)C(CCN2CC(C)CC(C)C2)CC(C)C(=O)/C=C/C(C)=C/C1COC1OC(C)C(O)C(OC)C1OC.O=P(O)(O)O (stereo not given) [Tilmicosin phosphate] | 0.758 | 0.837 | 0.68 | 0.693 |
| C=C1CCC2OC2(C)CCC2C1CC2(C)C (stereo not given) [Caryophyllene oxide] | 0.703 | 0.707 | 0.618 | 0.537 |
| CC(=O)OCC(=O)NCCCOc1cccc(CN2CCCCC2)c1.Cl [Roxatidine Acetate HCl] | 0.833 | 1.01 | 0.819 | 0.724 |
| O=C(O)CCn1c2c(c3ccccc31)CC(NS(=O)(=O)c1ccc(F)cc1)CC2 (stereo not given) [Ramatroban] | 0.928 | 0.688 | 0.964 | 0.443 |
| Cc1ncc([N+](=O)[O-])n1CCO [Metronidazole] | 0.648 | 0.863 | 0.684 | 0.723 |
| COc1cc(/C=C/C(=O)N2CCN(CC(=O)N3CCCC3)CC2)cc(OC)c1OC.O=C(O)/C=C\C(=O)O [Cinepazide maleate] | 0.94 | 1.2 | 0.738 | 0.736 |
| FC(F)(F)C(Cl)Br (stereo not given) [Halothane] | 1.04 | 1.36 | 0.91 | 0.84 |

| SMILES | NF-kB reporter (A549-Dual [1]; irradiation: 8 Gy/4 fr) | NF-kB reporter (A549-Dual [1]; irradiation: none) | ISRE reporter (A549-Dual [2]; irradiation: 8 Gy/4 fr) | ISRE reporter (A549-Dual [2]; irradiation: none) |
| --- | --- | --- | --- | --- |
| Cl.NC1=NCC2c3ccccc3Cc3ccccc3N12 (stereo not given) [Epinastine HCl] | 0.778 | 0.886 | 0.837 | 0.754 |
| O=c1cc(-c2ccc(O)c(O)c2)oc2cc(O)c(C3OC(CO)C(O)C(O)C3O)c(O)c12 (stereo not given) [Homoorientin] | 0.76 | 0.78 | 0.596 | 0.616 |
| CNCCc1ccccn1.CS(=O)(=O)O.CS(=O)(=O)O [Betahistine mesylate] | 0.872 | 1.15 | 0.681 | 0.637 |
| CCCCC(CC)COC(=O)c1ccccc1O (stereo not given) [Octisalate] | 0.731 | 1.19 | 0.762 | 1.06 |
| NC(=O)C1CCCN1C(=O)C(Cc1c[nH]cn1)NC(=O)C1CCC(=O)N1 (stereo not given) [Protirelin] | 0.784 | 1.35 | 0.586 | 0.712 |
| CCN(CC)CCOC(=O)C1(C2CCCCC2)CCCCC1.Cl [Dicyclomine HCl] | 0.953 | 0.879 | 0.715 | 1.02 |
| COC1C(O)CC(=O)OC(C)C/C=C/C=C/C(OC2CCC(N(C)C)C(C)O2)C(C)CC(CC=O)C1OC1OC(C)C(OC2CC(C)(O)C(O)C(C)O2)C(N(C)C)C1O (stereo not given) [Spiramycin] | 0.948 | 0.927 | 0.941 | 0.847 |
| CNC1C(O)C(NC)C2OC3(O)C(=O)CC(C)OC3OC2C1O.Cl.Cl (stereo not given) [Spectinomycin 2HCl] | 0.831 | 1.03 | 0.841 | 0.875 |
| NC(=O)c1cnccn1 [Pyrazinamide] | 0.998 | 0.954 | 0.955 | 0.807 |
| CCCc1nc2c(C)cc(-c3nc4ccccc4n3C)cc2n1Cc1ccc(-c2ccccc2C(=O)O)cc1 [Telmisartan] | 1.36 | 1.11 | 1.98 | 1.75 |
| CCN(CC)CC(=O)Nc1c(C)cccc1C.Cl [Lidocaine hydrochloride] | 0.709 | 1.19 | 0.678 | 0.725 |
| COc1nc2ccc(Br)cc2cc1C(c1ccccc1)C(O)(CCN(C)C)c1cccc2ccccc12.O=C(O)/C=C/C(=O)O (stereo not given) [Bedaquiline fumarate] | 0.807 | 1.06 | 1.12 | 2.23 |
| Cc1ncc(CO)c(CO)c1O.Cl [Pyridoxine HCl] | 0.708 | 0.984 | 0.807 | 0.809 |
| CC(C)CCCC(C)N.Cl (stereo not given) [Octodrine (2-Amino-6-methylheptan)] | 1.02 | 0.617 | 0.983 | 0.466 |
| Cl.Cl.Fc1ccc(C(c2ccc(F)cc2)N2CCN(C/C=C/c3ccccc3)CC2)cc1 [Flunarizine 2HCl] | 0.662 | 0.889 | 0.678 | 0.938 |
| O=C1c2cccc3c2C(CCC3)CN1C1CN2CCC1CC2 (stereo not given) [Palonosetron] | 0.8 | 1.35 | 0.952 | 1.08 |
| NCCc1c[nH]cn1.O=P(O)(O)O.O=P(O)(O)O [Histamine Phosphate] | 1.02 | 1.53 | 1.01 | 1.24 |
| CCN(Cc1ccncc1)C(=O)C(CO)c1ccccc1 (stereo not given) [Tropicamide] | 0.829 | 0.699 | 0.88 | 0.658 |
| CCc1ccc(CCOc2ccc(CC3SC(=O)NC3=O)cc2)nc1 (stereo not given) [Pioglitazone] | 0.759 | 0.881 | 0.592 | 0.958 |
| NCCCCC(NC(=O)C1CCCN1C(=O)C1CSSCC(N)C(=O)NC(Cc2ccc(O)cc2)C(=O)NC(Cc2ccccc2)C(=O)NC(CCC(N)=O)C(=O)NC(CC(N)=O)C(=O)N1)C(=O)NCC(N)=O (stereo not given) [Lypressin Acetate] | 1.31 | 0.646 | 1.47 | 0.729 |
| CCC(=O)[N]([Na])S(=O)(=O)c1ccc(-c2c(-c3ccccc3)noc2C)cc1 [Parecoxib Sodium] | 0.678 | 1.08 | 0.611 | 0.762 |
| CC(CCC(=O)O)C1CCC2C3C(O)CC4CC(O)CCC4(C)C3CCC12C (stereo not given) [Chenodeoxycholic Acid] | 0.579 | 0.441 | 0.591 | 0.508 |
| CN(CCOc1ccc(CC2SC(=O)NC2=O)cc1)c1ccccn1 (stereo not given) [Rosiglitazone] | 0.583 | 0.763 | 0.549 | 0.773 |
| Cc1cc(C2CCCCC2)n(O)c(=O)c1 [Ciclopirox] | 0.562 | 1.24 | 0.17 | 0.797 |
| CC1CCOC2Cn3cc(C(=O)NCc4ccc(F)cc4F)c(=O)c([O][Na])c3C(=O)N12 (stereo not given) [Dolutegravir Sodium] | 0.626 | 0.809 | 0.479 | 0.654 |
| Cc1nc2c([nH]1)-c1ccccc1N(C(=O)c1ccc(NC(=O)c3ccccc3-c3ccccc3)cc1)CC2.Cl [Conivaptan HCl] | 0.702 | 0.838 | 0.763 | 1.25 |
| CCC1OC(=O)C(C)C(OC2CC(C)(OC)C(O)C(C)O2)C(C)C(OC2OC(C)CC(N(C)C)C2O)C(C)(O)CC(C)/C(=N/OCOCCOC)C(C)C(O)C1(C)O (stereo not given) [Roxithromycin] | 0.774 | 0.994 | 0.849 | 0.938 |
